The results in this text go back to the supplement of paper PMC8007513.

The assay relates to Trichoderma virens ATCC 9645. Kind of assay: growth yield (OD600) relative to untreated control; higher = less growth inhibition. The note with it: compound concentration: 100 uM. Put shortly:
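For each 96-well plate, 100 μl aliquots were prepared with Trichoderma virens ATCC 9645 spores suspended at 15,000 spores ml^−1 in potato dextrose broth. The spores had been harvested from potato dextrose agar plates after 7 days. Library compounds were present at 100 μM final, some wells also receiving a biocide at 200 ng ml^−1, and plates were grown at 30 °C with OD600 read on a BioTek EL800 at 40 h and 72 h. Reported growth, relative to the control lacking both agents, is the mean of duplicate screens.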

Counter-ions that a name gives are not always drawn. ± gives the standard error. Screen size: about 1,300 compounds; about 75 (6%) showed an effect of 50% or more. The list shows a part of the results.

The compound `Cc1c(NC(C)C)c(=O)n(-c2ccccc2)n1C` [Isopyrin hydrochloride] showed a growth yield (40 h) of 100.9 ± 0.79% and a growth yield (72 h) of 96.17 ± 0.52%.

For `CC(C[N+](C)(C)C)OC(N)=O` (stereo not drawn) [Bethanechol chloride], the growth yield is, setting by setting: (40 h) 97.85 ± 0.95%; (72 h) 97.22 ± 0.1%.

For `COc1ccc2c(c1)C(=O)N(CCc1ccc(S(=O)(=O)NC(=O)NC3CCCCC3)cc1)C(=O)C2(C)C` [Gliquidone], the growth yield is, setting by setting: (40 h) 112.6 ± 1.1%; (72 h) 111 ± 0.21%.

Regarding `NS(=O)(=O)Cc1noc2ccccc12` [Zonisamide], the growth yield is, setting by setting: (40 h) 104.5 ± 0.95%; (72 h) 98.8 ± 1.9%.

On to `CN(C)CCN(Cc1ccc(Cl)cc1)c1ccccn1` [Chloropyramine hydrochloride], for which the growth yield is, setting by setting: (40 h) 98.8 ± 1.9%; (72 h) 96.2 ± 2.6%.

As for `Cc1cn([C@H]2C[C@H](N=[N+]=[N-])[C@@H](CO)O2)c(=O)[nH]c1=O` [Zidovudine, AZT], the growth yield runs as follows: (40 h) 99.1 ± 1.3%; (72 h) 101 ± 1.1%.

On to `COc1ccc([C@@H]2Sc3ccccc3N(CCN(C)C)C(=O)[C@@H]2OC(C)=O)cc1` [Diltiazem hydrochloride], for which the growth yield is, setting by setting: (40 h) 100 ± 2.9%; (72 h) 99.6 ± 2.7%.

For `O=C(O)C[C@H](O)C[C@H](O)/C=C/c1c(C2CC2)nc2ccccc2c1-c1ccc(F)cc1` [Pitavastatin calcium], the growth yield is, setting by setting: (40 h) 4.13%; (72 h) 2.94%.

On to `Cc1ccc(C)c(OCCCC(C)(C)C(=O)O)c1` [Gemfibrozil], for which the growth yield is, setting by setting: (40 h) 81 ± 3.5%; (72 h) 91.35 ± 0.1%.

As for `O=C(CCCN1CCC(O)(c2ccc(Cl)cc2)CC1)c1ccc(F)cc1` [Haloperidol], the growth yield is, setting by setting: (40 h) 104 ± 3.2%; (72 h) 100 ± 2.7%.

On to `CNCCC=C1c2ccccc2C=Cc2ccccc21` [Norcyclobenzaprine], for which the growth yield is, setting by setting: (40 h) 97.7 ± 1.8%; (72 h) 100 ± 2.3%.

On to `NC(=O)OCC(O)COc1ccc(Cl)cc1` (stereo not drawn) [Chlorphensin carbamate], for which the growth yield was found to be 100 ± 2.9% (40 h) and 97.3 ± 2.9% (72 h).

Take `COC(=O)CCc1ccc(OCC(O)CNC(C)C)cc1` (stereo not drawn) [Esmolol hydrochloride]: the growth yield stood at 105 ± 4.6% (40 h) and 100 ± 1.5% (72 h).

For the compound `COCCOC(=O)C1=C(C)NC(C)=C(C(=O)OC(C)C)C1c1cccc([N+](=O)[O-])c1` (stereo not drawn) [Nimodipine], the growth yield by setting is: (40 h) 95.3 ± 7.3%; (72 h) 97.7 ± 9%.

As to `CN1C(C(=O)Nc2ccccn2)=C(O)c2ccccc2S1(=O)=O` [Piroxicam], the growth yield is, setting by setting: (40 h) 86.9 ± 5.2%; (72 h) 90.6 ± 4.8%.

Regarding `C[C@]12CCC(=O)C=C1C=C[C@@H]1[C@@H]2CC[C@@]2(C)[C@H]1CC[C@@]21CCC(=O)O1` [Canrenone], the growth yield by setting is: (40 h) 91.3 ± 4.9%; (72 h) 93.9 ± 3.5%.

Consider `O=C(c1ccc(F)cc1)C1CCN(CCn2c(=O)[nH]c3ccccc3c2=O)CC1` [Ketanserin tartrate hydrate], for which the growth yield reads like this: (40 h) 99.43 ± 0.95%; (72 h) 100.9 ± 0.42%.

Turning to `CCN(CC)C(=O)c1ccc(O)c(OC)c1` [Ethamivan], the growth yield came out at 104 ± 3.2% (40 h) and 103 ± 3.8% (72 h).

For `Cc1[nH]cnc1CN1CCc2c(c3ccccc3n2C)C1=O` [Alosetron hydrochloride], the growth yield amounted to 95.94 ± 0.64% (40 h) and 97.3 ± 1.3% (72 h).

With `CCCOc1ccc2[nH]c(NC(=O)OC)nc2c1` [Oxibendazol], the growth yield was 16.4 ± 3.6% (40 h) and 74.6 ± 3.5% (72 h).

For `CN(C)CCOC(c1ccccc1)c1ccccc1.Cn1c(=O)c2[nH]c(Cl)nc2n(C)c1=O` [Dimenhydrinate], the growth yield worked out at 102 ± 2.1% (40 h) and 103.2 ± 0.21% (72 h).

For `CN(CCCN1c2ccccc2CCc2ccccc21)CC(=O)c1ccc(Cl)cc1` [Lofepramine], the growth yield is, setting by setting: (40 h) 66.1 ± 8.3%; (72 h) 80.3 ± 3.4%.

For `O=C1NCC2(CCN(CCc3ccccc3)CC2)O1` [Fenspiride hydrochloride], the growth yield runs as follows: (40 h) 101.3 ± 0.64%; (72 h) 102.9 ± 0.73%.

As for `Clc1ccc2c(c1)CCc1cccnc1C2=C1CCNCC1` [Desloratadine], the growth yield reads like this: (40 h) 106 ± 6.8%; (72 h) 105 ± 4.8%.

Turning to `CCCNC(=O)NS(=O)(=O)c1ccc(Cl)cc1` [Chlorpropamide], the growth yield is, setting by setting: (40 h) 101%; (72 h) 99.6 ± 2.7%.

In the case of `CCN(CC)C(C)CN1c2ccccc2Sc2ccccc21` (stereo not drawn) [Ethopropazine hydrochloride], the growth yield is, setting by setting: (40 h) 107 ± 13%; (72 h) 108 ± 10%.

In the case of `CC(=O)O[C@]1(C(C)=O)CC[C@H]2[C@@H]3C=C(Cl)C4=CC(=O)CC[C@]4(C)[C@H]3CC[C@@]21C` [Chlormadinone acetate], the growth yield stood at 114 ± 1.6% (40 h) and 111.9 ± 0.1% (72 h).

Regarding `Cc1cc(O)c(C(=O)N[C@@H](C(=O)N[C@@H]2C(=O)N3C(C(=O)O)=C(CSc4nnnn4C)CS[C@H]23)c2ccc(O)cc2)cn1` [Cefpiramide], the growth yield came to 104 ± 7% (40 h) and 102 ± 4.3% (72 h).

As for `CO[C@H]1/C=C/O[C@@]2(C)Oc3c(C)c(O)c4c(O)c(c5c(nc6cc(C)ccn65)c4c3C2=O)NC(=O)/C(C)=C\C=C\[C@H](C)[C@H](O)[C@@H](C)[C@@H](O)[C@@H](C)[C@H](OC(C)=O)[C@@H]1C` [Rifaximin], the growth yield was 108 ± 2.5% (40 h) and 101.9 ± 0.21% (72 h).

On to `Clc1cccc(Cl)c1NC1=NCCN1` [Clonidine hydrochloride], for which the growth yield reads like this: (40 h) 102 ± 1.1%; (72 h) 104 ± 2.6%.

As for `O=C1[C@H]2CCCC[C@H]2C(=O)N1CCCCN1CCN(c2nsc3ccccc23)CC1` [Perospirone], the growth yield was 99.1 ± 2.9% (40 h) and 99.7 ± 3.7% (72 h).

As for `Nc1nc2c(ncn2COC(CO)CO)c(=O)[nH]1` [Ganciclovir], the growth yield by setting is: (40 h) 106 ± 4.3%; (72 h) 103 ± 4%.

On to `NCCCCCC(=O)O` [Aminocaproic acid], for which the growth yield runs as follows: (40 h) 102 ± 2.2%; (72 h) 95.4 ± 2.3%.

As to `CN(C)C(=N)NC(=N)N` [Metformin hydrochloride], the growth yield is, setting by setting: (40 h) 105 ± 7.2%; (72 h) 103 ± 5.3%.
